# Source: paper PMC4336329 (PLoS ONE, 2015)
# About 2,200 (0.71%) of roughly 310,000 compounds showed an effect of 50% or more. Effects have a minus sign here. The list shows a part of the results.
# Target: human ether-à-go-go-related gene (hERG) potassium channel (human, UniProt Q12809)
# Test: primary screen, population patch clamp on CHO cells stably expressing hERG
# human ether-à-go-go-related gene (hERG) potassium channel, sequence (Q12809 whole entry, looked up): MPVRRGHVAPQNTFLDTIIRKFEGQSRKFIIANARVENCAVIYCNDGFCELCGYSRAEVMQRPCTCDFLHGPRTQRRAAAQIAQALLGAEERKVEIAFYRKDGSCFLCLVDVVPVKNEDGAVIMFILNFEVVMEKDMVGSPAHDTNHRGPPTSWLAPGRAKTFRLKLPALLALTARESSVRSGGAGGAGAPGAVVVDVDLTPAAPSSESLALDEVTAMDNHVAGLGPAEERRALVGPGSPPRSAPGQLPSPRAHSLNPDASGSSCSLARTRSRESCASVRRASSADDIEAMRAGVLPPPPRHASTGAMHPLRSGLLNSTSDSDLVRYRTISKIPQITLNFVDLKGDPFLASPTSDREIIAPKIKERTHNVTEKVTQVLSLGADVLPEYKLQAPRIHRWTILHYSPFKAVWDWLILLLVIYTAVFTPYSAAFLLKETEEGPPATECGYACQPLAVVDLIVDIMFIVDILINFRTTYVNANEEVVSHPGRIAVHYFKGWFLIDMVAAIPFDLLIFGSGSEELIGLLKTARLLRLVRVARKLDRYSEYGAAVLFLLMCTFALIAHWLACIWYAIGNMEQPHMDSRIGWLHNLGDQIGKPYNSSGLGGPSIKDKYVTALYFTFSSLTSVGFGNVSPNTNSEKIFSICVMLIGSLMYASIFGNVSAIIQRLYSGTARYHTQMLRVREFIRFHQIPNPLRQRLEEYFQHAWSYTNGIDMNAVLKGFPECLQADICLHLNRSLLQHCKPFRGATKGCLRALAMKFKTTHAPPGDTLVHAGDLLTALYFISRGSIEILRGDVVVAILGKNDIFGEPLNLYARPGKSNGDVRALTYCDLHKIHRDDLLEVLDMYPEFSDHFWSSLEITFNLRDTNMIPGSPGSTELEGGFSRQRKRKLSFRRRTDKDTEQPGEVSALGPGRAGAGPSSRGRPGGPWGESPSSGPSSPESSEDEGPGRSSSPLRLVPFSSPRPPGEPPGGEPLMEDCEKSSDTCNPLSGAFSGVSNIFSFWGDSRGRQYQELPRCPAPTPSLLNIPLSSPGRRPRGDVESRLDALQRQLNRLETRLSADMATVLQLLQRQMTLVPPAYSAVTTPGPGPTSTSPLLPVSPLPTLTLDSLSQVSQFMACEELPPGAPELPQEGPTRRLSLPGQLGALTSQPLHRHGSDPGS
row,Compound,"hERG current change (%, negative = inhibition) at 1uM [%]"
1,CCCOc1ccc(/C=N/NC(=O)C(C)Sc2ccccn2)cc1OCC (stereo not drawn),10.9
2,COc1ccc(CNC(=O)CN(C)S(=O)(=O)c2ccc3c(c2)c(=O)n(C)c(=O)n3C)cc1,-0.424
3,O=C1NC(=S)N/C1=C/c1ccc2ccccc2c1,13.2
4,CCCc1nc(N)nc2c1C(=O)CC(C)(C)C2,4.14
5,COc1cc(C=O)cc(OC)c1OS(=O)(=O)c1ccc(NC(C)=O)cc1,7.66
6,Cn1c(=O)n(C)c2cc(C(=O)Nc3ccc4c(c3)OCO4)ccc21,14.8
7,CCOC(=O)C1(C)NC(c2ccc(O)cc2)C2C(=O)N(c3ccccc3)C(=O)C21 (stereo not drawn),18.6
8,O=C(O)C(=O)O.OC(COCc1cccs1)CN1CCN(c2cccc(Cl)c2)CC1 (stereo not drawn),-13.4
9,CC(Cc1ccccc1)NC(=O)CN1C(=O)c2ccccc2S1(=O)=O (stereo not drawn),5.88
10,COc1ccc(OCC#CCNC(C)(C)C)cc1.O=C(O)C(=O)O,13.3
11,Cc1ccc(S(=O)(=O)N(C)C)cc1NC(=O)COC(=O)/C=C/c1cccs1,9.04
12,Cc1cnc(NC(=O)CN2CCN(c3ccccn3)CC2)s1,3.32
13,Cc1c(Cl)cccc1NC(=S)N1CCN(Cc2ccc3c(c2)OCO3)CC1,16.6
14,CN(C)CC(C)(C)CNC(=O)C1CCN(CCCc2ccccc2)CC1.O=C(O)C(=O)O,14.7
15,CC(C)CC1(C)NC(=O)N(CC(=O)Nc2ccc3c(c2)CCC3)C1=O (stereo not drawn),-4.58
16,COc1ccc(CCNC(=O)CSc2nnc(C(C)N(C)C)n2Cc2ccccc2)cc1OC (stereo not drawn),2.3
17,COc1ccc(/C=C2\SC(=O)N(CCNC(=O)C3CC4C=CC3C4)C2=O)cc1 (stereo not drawn),1.01
18,COc1ccc(-c2csc(NC(=S)NC(=O)/C=C/c3ccco3)n2)cc1Br,27.8
19,COc1ccc2cc3c(N)nn(C(=O)c4ccccc4Cl)c3nc2c1,5.88
20,O=C(C1=C(O)C(=O)N(CCN2CCOCC2)C1c1ccc([N+](=O)[O-])cc1)c1cccs1 (stereo not drawn),16.6
21,Cn1cnc([N+](=O)[O-])c1Cl,11
22,COC(=O)C1=C(c2ccc(OCc3ccccc3)cc2)C[C@@H]2CC[C@H]1N2C(=O)NCc1ccc(N(C)C)cc1,-0.509
23,O=[N+]([O-])c1ccn(-c2nc(-c3ccccc3)cc(C(F)(F)F)n2)n1,-25.8
24,CCC(C)NC(=O)c1ccc(NC(=O)C2CCCO2)cc1 (stereo not drawn),3.93
25,Cc1ccc(CNC(=O)CCCn2nc(C)c3c(C)n(-c4ccccc4)nc3c2=O)cc1,16.1
26,COc1ccc(-c2n[nH]c(=S)n2-c2cc(OC)ccc2OC)cc1,8.94
27,O=C(CSc1n[nH]c(=O)n1-c1ccccc1)Nc1ccccc1C(F)(F)F,14.8

row,Compound,"hERG current change (%, negative = inhibition) at 1uM [%]"
1,O=C(NCc1ccc(Cl)cc1)c1ccc(CNc2c(N3CCOCC3)c(=O)c2=O)cc1,4.11
2,Cc1ccc(C(=O)Nc2ccc(N3CCOCC3)cc2N2CCOCC2)cc1,12.7
3,COc1cc2oc3ccccc3c2cc1N(CC(=O)N(C)C)S(=O)(=O)c1ccc(C)cc1,9.73
4,C[C@H]1CC[C@H]2C(=O)N[C@H](Cc3ccccc3)C(=O)N2[C@@H]1c1ccccc1,28.8
5,Nc1ncnc2c1C1(CCCCC1)Cc1ccccc1-2,-1.87
6,COc1ccc(CCNC(=O)CCC(=O)n2ncc3ccc(Cl)cc32)cc1OC,8.6
7,CCCCC(=O)Nc1ccc2c(c1)nc(CCN1CCOCC1)n2C,5.44
8,CC1(c2nnc(Cc3ccccc3)o2)CC(c2ccccc2Br)=NO1 (stereo not drawn),10.3
9,O=C(Nc1nnc(CCc2ccccc2)s1)C1CCCO1 (stereo not drawn),4.31
10,Cc1ccc(C2CC(c3ccccc3)=NN2C(=O)CSc2nnc(-c3ccncc3)n2C)o1 (stereo not drawn),30.4
11,CC(NC(=O)c1cccs1)C(c1cccs1)N1CCN(Cc2ccccc2)CC1 (stereo not drawn),-13.4
12,C[N+]1(CCn2ccc3ccccc32)CCCCC1.[I-],15.5
13,Cc1ccc(C(C#N)c2ccc(C(=O)c3ccc(F)cc3)cc2)cc1 (stereo not drawn),17.6
14,O=C(NC(=O)N1CCN(C(c2ccccc2)c2ccccc2)CC1)c1ccccc1,2.03
15,CCOC(=O)c1cc(-c2csc(-c3ccc(C(C)(C)C)cc3)n2)on1,3.69
16,O=C1CN(C(=O)COC(=O)/C=C/c2ccc(S(=O)(=O)N3CCOCC3)cc2)c2ccccc2N1,10.2
17,O=C(Nc1ccccc1C(=O)NC(Cc1c[nH]c2ccccc12)C(=O)O)c1ccco1 (stereo not drawn),3.31
18,S=C1NCCNC(=S)NCCOCCOCCOCCN1,10.5
19,O=C(N/N=C/c1ccccn1)c1cc(-c2cccc3ccccc23)n[nH]1,5.17
20,CC1CCCC(C)N1C(=O)CSc1ncccn1 (stereo not drawn),19.3
21,Cn1cnc([N+](=O)[O-])c1Sc1ncn[nH]1,15.7
22,COC(=O)c1sc(NC(=S)NC(=O)c2ccccc2Cl)nc1C,11
23,COCC(=O)N1CCC(Oc2ccc(C(=O)NCc3cc(C)no3)cc2)CC1,-4.65
24,CCOc1cc(CNCCc2ccc(S(N)(=O)=O)cc2)ccc1OCC(=O)NC1CCCCC1.Cl,7.04
25,O=C(CCCCCn1c(=S)[nH]c2ccc(N3CCOCC3)cc2c1=O)NCc1ccc(Cl)cc1,18.3
26,COc1ccc(OC)c(CC(NC(C)=O)C(=O)NC2CCN(c3c(Cc4ccccc4)c(C)nc4ncnn34)CC2)c1 (stereo not drawn),5.3
27,CCCC(=O)NNc1cc(=O)c2c(=O)n(C)c(=O)n(C)c2[nH]1,8.94
